Sequences and labels used below:
B1: chr10:67912576:67912687:+|CDS|ENSG00000096717|unk|FALSE|unique (ssRNA)
RNA: GGGAGUUCUACAGUCCGACGAUCUUUUGAUGUAGAGCUUCUUGGAGACUGUGAUGUCAUAAUUAAUGAAUUGUGUCAUAGGUUAGGUGGUGAAUAUGCCAAACUUUGCUGUAACCCUGUAAAGCUUUCAGAAAUUACUGAAAACAACAGAGGAUUGAGCAUCA
B2: chr2:11642538:11642650:+|3pUTR|ENSG00000196208|unk|total|mutant (ssRNA)
RNA: GGGAGUUCUACAGUCCGACGAUCCGAAGAGUUGAUGUCAAUCUUUUUUUCCUAAGAAAAAAAGUCCGCGAGUAUUAAAUAUUCCGAUCAAUGUUUAUAAAAUGAUUACUUUGUAUAUCUCAUUAUUCCUAUUUUGGAAUAAAACAACAGAGGAUUGAGCAUCA
B3: chr19:4839056:4839157:-|3pUTR|ENSG00000105355|msi1|FALSE|unique (ssRNA)
RNA: GGGAGUUCUACAGUCCGACGAUCUCUAUAAUGCAGCUGUGCUCUGGAGUCCUCAACCCGGGGCUCAUUUCAAACUUAUUUUCUAGCCACUCCUCCCAGCUCUUCUGUGCUGUCCACUUGGGAAGCUAAGGCUCUCAAAACGGGCAACAGAGGAUUGAGCAUCA
B4: chr22:38866210:38866312:-|CDS|ENSG00000183741|unk|FALSE|bound_elsewhere (ssRNA)
RNA: GGGAGUUCUACAGUCCGACGAUCGACGGUCACAAUCAAGGAAUUCUGCAACCCUGAGGAUUUCGAGAAGGUGGCUGCUGGGGUAGCAGGCGCCGCUGGGGGCGGUGGCAGCAUUGGGGCGAGCAAGUGAGGGGGCUCCACCAACAACAGAGGAUUGAGCAUCA
B5: ENSG00000198589:be:win_701|CDS|ENSG00000198589|bound_else_gene|NA|bound_elsewhere_windowed (ssRNA)
RNA: GGGAGUUCUACAGUCCGACGAUCAUACAUGGCUUAGAAUGGAUCCUGUAAAUAACAUCAAUGUAGAUAAGGAUAAACCAUAUUUGUAUUGUUUCAGAACCAGCAAAGGUCUUGGCUAUUCUGCUCAUUUUGUUGGAGGCUGUUCAACAGAGGAUUGAGCAUCA
B6: chr11:130404922:130405557:-|three_prime_utr|ENSG00000134917|control|control|control (ssRNA)
RNA: GGGAGUUCUACAGUCCGACGAUCAUGGGGCGGCAGACCCUAUCAUCAACUGUCCAGUGGACUGGACCUUGCUCGGGUUCAAGUAGAGGGCAUAGGUUAAAAGGUAAAAGUGCACUUAUUGACUCAGACAGGACACUCAGCGUCCAACAGAGGAUUGAGCAUCA
B7: chr6:145805060:145805161:-|CDS|ENSG00000118496|unk|FALSE|bound_elsewhere (ssRNA)
RNA: GGGAGUUCUACAGUCCGACGAUCAGAAGAUCCUAUGGGCCUCCAAGGAAUAGAUCUGAUCACAGCAGCAUUGCUUUUUUGUCUAGGAGAUUCUCCAGGAGGGAGGGGUAUAUCUGAUAGCCGCAUGGCUGAUAUUUAUCACAUCAACAGAGGAUUGAGCAUCA
B8: ENSG00000136451:be:win_1501|CDS_3pUTR|ENSG00000136451|bound_else_gene|NA|bound_elsewhere_windowed (ssRNA)
RNA: GGGAGUUCUACAGUCCGACGAUCGCAAUGAGACCUGUAGAGAGCAUGCCUUUCUUGCCCCAAGCUUUGCCUACAUCACCGCCUUGGUAAACAGUAUUAUAAAAUCAAAAUAUGGGUAAAAGUAAAUAUUUACCAGCAACUUAACAACAGAGGAUUGAGCAUCA
B9: ENSG00000198589:be:win_801|CDS|ENSG00000198589|bound_else_gene|NA|bound_elsewhere_windowed (ssRNA)
RNA: GGGAGUUCUACAGUCCGACGAUCUCAUUUUGUUGGAGGCUGUUUGAUUGUAACAUCAAUAAAGUCAAAAGGAAAAGGCUUUCAACACUGUGUGAAAUUUGAUUUCAAGCCACAAAAGUGGUAUAUGGUUACCAUAGUACACAUCAACAGAGGAUUGAGCAUCA
B10: chr2:112756978:112757080:-|CDS|ENSG00000169607|unk|FALSE|unique (ssRNA)
RNA: GGGAGUUCUACAGUCCGACGAUCCUUCUGGGCAAAAGGCUGACUUCAGAAUGUGUUUCUUCUAACCCAUACUCUAAGCCUUCUAGCAAGAGUUUUCAACAGUGUGAAGCUGGAUCGUCCACAACAGGAGAACUGUCAAGAAAACAACAGAGGAUUGAGCAUCA
B11: ENSG00000136451:be:win_3701|3pUTR|ENSG00000136451|bound_else_gene|NA|bound_elsewhere_windowed (ssRNA)
RNA: GGGAGUUCUACAGUCCGACGAUCUCUCUGGUGGGCUGGCAGUCAUAAUUCACAAUUCAGACAGCCCAGGCUUCCUCCACAGUGGUCCAAGGAGCAGUCCUCAGUGGGGGCAGGUGUGGGCCCUACCCCUAAGCUAGAAUGUGGCAACAGAGGAUUGAGCAUCA
B12: ENSG00000168615:stop:overlap|stop_codon|ENSG00000168615|stop_codon|NA|stop_codon (ssRNA)
RNA: GGGAGUUCUACAGUCCGACGAUCCUGGCCAGAAUACCCAAAAUAAUUGGCAGAUGUCAAAUUUGGCUUUCUGUGUUUAUUACUAGAGCAUAAACAUUUCUAGUUUUGUUUGAGUGUUUUACAGUCCUUUUUGGCAGUUAGGUACAACAGAGGAUUGAGCAUCA
B13: chr8:48920054:48920155:-|CDS|ENSG00000019549|unk|FALSE|unique (ssRNA)
RNA: GGGAGUUCUACAGUCCGACGAUCACCUAUUCAACUUUUUCUGGGCUGGCCAAACAUAAGCAGCUGCACUGCGAUGCCCAGUCUAGAAAAUCUUUCAGCUGUAAAUACUGUGACAAGGAAUAUGUGAGCCUGGGCGCCCUGAAGCAACAGAGGAUUGAGCAUCA
B14: chr2:54972555:54972835:-|3pUTR|ENSG00000115310|msi1_unk|FALSE|overlapping (ssRNA)
RNA: GGGAGUUCUACAGUCCGACGAUCUGUGCACUGUGUAUGGUCCGUGUAGAUUGAUGCAGAUUUUCUGAAAUGAAAUGUUUGUUUAGACGAGAUCAUACCGGUAAAGCAGGAAUGACAAAGCUUGCUUUUCUGGUAUGUUCUAGGCAACAGAGGAUUGAGCAUCA
B15: chr22:20586770:20586871:+|3pUTR|ENSG00000099917|unk|total|mutant (ssRNA)
RNA: GGGAGUUCUACAGUCCGACGAUCACACGCCUCCUGUCAGACACUUCCCGGUGUUGGCUUCCUCCGAGAGCCUGGGGUCCGGUCCGCUUUCCUGCUUUUAUCUUCUGCCUUGGGGACCUGCCAAACGAAAUCCCACACCUGUACCAACAGAGGAUUGAGCAUCA
B16: ENSG00000070961:be:win_1051|CDS|ENSG00000070961|bound_else_gene|NA|bound_elsewhere_windowed (ssRNA)
RNA: GGGAGUUCUACAGUCCGACGAUCAAAGCAAAUUUGCCAAAAAAGGAAAAAUCUGUUUUACAAGGGAAACUUACAAAACUGGCUGUUCAGAUUGGCAAAGCAGGUCUGUUGAUGUCUGCCAUCACAGUUAUCAUUCUAGUAUUACAACAGAGGAUUGAGCAUCA
B17: chr2:159432892:159433005:-|CDS|ENSG00000123636|unk|total|mutant (ssRNA)
RNA: GGGAGUUCUACAGUCCGACGAUCACACCUGUAAUGCCCUCUGCCUCUCCCAUCCUGCACCGUCAAGGGAAGGAAAAAGCAGUCCGCAAUAAUGUAAACCCAGUAAAAACACAGCAUCACUCCCAUCCUGCAAAAUCUUCCGUGCAACAGAGGAUUGAGCAUCA
B18: chr5:177457090:177457109:-|3pUTR|ENSG00000113758|msi1_unk|total|mutant (ssRNA)
RNA: GGGAGUUCUACAGUCCGACGAUCGGCCGUUGAGACGCUGUUGCAAAUUCCACCCCUCCUUCCCUGGUCCAGAUUGCCGCUCUCCGUCCUCCCUGCUCAGCUGGCCGGGUUGGAGGCCUCACCCUGCUUGGGGCCUGGCGUGGGCAACAGAGGAUUGAGCAUCA
B19: ENSG00000070961:be:win_2451|CDS|ENSG00000070961|bound_else_gene|NA|bound_elsewhere_windowed (ssRNA)
RNA: GGGAGUUCUACAGUCCGACGAUCUGGAACUGAUGUAGCUAAAGAAGCAUCCGAUAUUAUUCUCACAGAUGACAACUUUACAAGCAUUGUUAAAGCAGUUAUGUGGGGACGAAAUGUCUAUGACAGCAUCUCAAAAUUCCUUCACAACAGAGGAUUGAGCAUCA
B20: chr16:56429670:56429771:-|3pUTR|ENSG00000167005|msi1|total|mutant (ssRNA)
RNA: GGGAGUUCUACAGUCCGACGAUCCAAUCACUGAGACUGCAUCAGAGUUUGCAAUUUUGUAUGUUUCAUUGCCAAAGAAGGCUCCGUGGUUGUUGACUGCCGUAUAAGUCAGCUUUCUGCCGCAUAAGAUUUGAUUUUCCCAUACAACAGAGGAUUGAGCAUCA
B21: ENSG00000124766:be:win_3601|3pUTR|ENSG00000124766|bound_else_gene|NA|bound_elsewhere_windowed (ssRNA)
RNA: GGGAGUUCUACAGUCCGACGAUCUGUACUGCGUUUUUCAUUCUUGUAUUUGACUAUUUAAUCCUUUCUACUUGUCGCUAAAUAUAAUUGUUUUAGUCUUAUGGCAUGAUGAUAGCAUAUGUGUUCAGGUUUAUAGCUGUUGUGCAACAGAGGAUUGAGCAUCA
B22: ENSG00000103657:stop:overlap|stop_codon|ENSG00000103657|stop_codon|NA|stop_codon (ssRNA)
RNA: GGGAGUUCUACAGUCCGACGAUCAGUUUUCUGUUGCUUUGACCAAAGAUGGUCAUGUGUAUACCUUUGGUCAAGGUGGUGAGUAGUCACUAUGACCUCCUUUCAGUAUAGAUAAUUUUCCACUUCUCUUUCAUGUGCUUUAUUCAACAGAGGAUUGAGCAUCA

The list shows a part of the results.

Among the data in publication PMC12136788 are binding signal values, retold here.

This experiment deals with MSI1 full-length (mouse, UniProt Q61474 1-362). Put plainly: nsRBNS (natural sequence RNA bind-n-seq); RBNS binding buffer (assumed for nsRBNS): 25 mM Tris pH 7.5, 150 mM KCl, 3 mM MgCl2, 0.01% Triton X-100, 500 ug/ml BSA, 20 U/ml SUPERase-In, 4 C; UNK is unkempt and MSI1 is Musashi-1; names of the RNAs are library labels; protein concentration not given here; high values mean tight binding.
UniProt Q61474, sequence (Q61474 whole entry): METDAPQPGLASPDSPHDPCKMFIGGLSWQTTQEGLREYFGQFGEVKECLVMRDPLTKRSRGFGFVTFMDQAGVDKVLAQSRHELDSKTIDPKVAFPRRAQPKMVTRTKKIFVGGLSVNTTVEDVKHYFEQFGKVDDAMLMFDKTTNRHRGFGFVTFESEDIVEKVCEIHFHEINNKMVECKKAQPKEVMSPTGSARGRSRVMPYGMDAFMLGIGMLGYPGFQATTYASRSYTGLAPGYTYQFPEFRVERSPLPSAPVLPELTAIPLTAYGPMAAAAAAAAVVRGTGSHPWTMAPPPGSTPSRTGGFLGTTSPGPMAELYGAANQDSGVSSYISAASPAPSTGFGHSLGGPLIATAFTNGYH
As to B1, the binding signal was 0.795 enrichment R.

For B2, the binding signal was 0.529 enrichment R.

Molecule B3 returned a binding signal of 0.751 enrichment R.

Molecule B4 came in with a binding signal of 0.51 enrichment R.

Turning to B5, the binding signal stood at 1.38 enrichment R.

Take B6: the binding signal turned out to be 0.878 enrichment R.

As for B7, the binding signal was 0.421 enrichment R.

Molecule B8 had a binding signal of 0.827 enrichment R.

B9: the binding signal was 0.264 enrichment R.

With B10, the binding signal was found to be 0.472 enrichment R.

As for B11, the binding signal amounted to 0.479 enrichment R.

In the case of B12, the binding signal came out at 0.392 enrichment R.

With B13, the binding signal came to 0.478 enrichment R.

The molecule B14 came in with a binding signal of 0.252 enrichment R.

Consider B15, for which the binding signal turned out to be 0.509 enrichment R.

Consider B16, for which the binding signal is 0.43 enrichment R.

Regarding B17, the binding signal worked out at 1.09 enrichment R.

Molecule B18 returned a binding signal of 0.701 enrichment R.

Molecule B19 had a binding signal of 0.203 enrichment R.

As for B20, the binding signal was found to be 0.291 enrichment R.

Molecule B21 gave a binding signal of 1.86 enrichment R.

For the molecule B22, the binding signal turned out to be 0.712 enrichment R.
